Assay results from patent US11655307B2, “Anti-doublecortin-like kinase 1 antibodies and methods of use” (The Board of Regents of the University of Oklahoma, priority 2017, dated 2023).

What was measured:
[1] = molecular target: T1, DCLK1 isoform 4 purified protein (Homo sapiens, UniProt O15075); experiment: Western blotting against purified DCLK1 protein; format: binding; conditions: FIG. 1
T1 sequence (O15075 1-433 isoform O15075-4): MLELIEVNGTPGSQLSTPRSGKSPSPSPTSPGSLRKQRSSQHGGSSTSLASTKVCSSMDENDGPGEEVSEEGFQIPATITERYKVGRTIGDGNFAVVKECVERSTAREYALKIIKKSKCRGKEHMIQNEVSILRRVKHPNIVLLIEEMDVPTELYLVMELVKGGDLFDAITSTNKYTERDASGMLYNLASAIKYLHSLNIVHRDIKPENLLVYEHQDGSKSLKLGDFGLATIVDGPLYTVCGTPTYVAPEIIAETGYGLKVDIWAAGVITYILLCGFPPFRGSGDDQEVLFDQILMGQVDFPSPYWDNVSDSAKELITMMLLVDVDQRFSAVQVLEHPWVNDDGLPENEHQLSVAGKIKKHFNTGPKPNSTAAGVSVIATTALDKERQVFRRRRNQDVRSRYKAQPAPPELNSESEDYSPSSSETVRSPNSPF
Procedure: (§1) Lysates from ACHN or CAKI2 cells were subjected to Western blot analysis. The concentration of total proteins was determined by BCA protein assay (Pierce, Rockford, Ill.). 40 μg of protein lysates were size separated on a 4%-20% SDS polyacrylamide gel and transferred onto a PVDF membrane. The membrane was blocked in 1% caseine for 30 minutes and probed with primary antibody α-DCLK1 (ABCAM, ab31704), HIF-1α (ABCAM, ab2185), Vimentin (Santa Cruz, S.C.-7557), ALDH1A1 (ABCAM, ab52492), β-Actin (ABCAM, ab8226) overnight at 4° C. The membrane was then washed 3 times with TBST and probed with species-appropriate secondary antibody (cw800-conjugated) for 30 mins at room temperature protected from light. Finally, proteins were detected using a LICOR Odyssey Infrared Imager and density quantification was performed in Image Studio Lite (LICOR) where appropriate.
The resulting monoclonal antibodies produced from this screening process included an Immunoglobulin A species (CBT-15A) and an Immunoglobulin G213 species (CBT-15G). Following purification of the resulting antibodies, their affinity for DCLK1 was confirmed by Western blotting against DCLK1 isoform 4 purified protein (FIG. 1). […] The ability of these antibodies to bind extracellular DCLK1 was further apparent in FACS sorting experiments. […]

[2] = system: extracellular DCLK1 on AsPC-1 human pancreatic cancer cells; experiment: FACS of live AsPC-1 cells under non-permeabilizing conditions; format: cell-based; conditions: 10 μg/mL, on ice, FIG. 3
Procedure: To assess cell cycle status, cells were trypsinized, centrifuged at 4° C., washed with cold PBS, and then fixed in 70% ethanol on ice for >2 h. Following fixation the cells were washed with PBS again and incubated with propidium iodide (50 μg/ml) and treated with RNAse A. In another experiment to analyze the expression of DCLK1, cells were trypsinized, centrifuged, washed, and then 5 μL activated ALDEFLUOR and 5 μL anti-DCLK1 antibody conjugated with respective fluorochromes were added and allowed to incubate for 60 min at 37° C. Following incubation the cells were washed with ALDEFLUOR buffer. Data was collected on FACS Calibur and analyzed in ModFit LT or Flowing Software. To analyze the expression level of ALDH, cells were resuspended in ALDEFLUOR assay buffer containing ALDH substrate, BAA (Bodipy-aminoacetaldehyde) (50 mg dry reagent), with or without 5 ml of the specific ALDH inhibitor diethylaminobenzaldehyde (DEAB 1.5 mM in 95% ethanol stock solution), as a negative control. After 60 mins incubation at 37° C., data was collected by FACS Calibur. For DCLK1 extracellular-domain based cell sorting, cells were trypsinized and washed as described above. After washing cells were incubated with anti-DCLK1 antibody conjugated with fluorochrome for 60 min on ice and sorted using BD Biosciences FACSAria III. Sorted cells were kept on ice and seeded directly into ECM. […]

PD-L1 = experiment: Western blot of PD-L1 protein expression in RCC cells; format: cell-based, human; conditions: ACHN and Caki-2 RCC cells; 72 h, 100 μg/mL antibody; FIG. 23
Procedure: as §1
(§2) Given our tissue microarray data, the hypothesized link between immune checkpoint and cancer stem cells, and emerging data linking immune checkpoint to the EMT-phenotype supported by DCLK1, we evaluated whether targeted DCLK1 knockdown may sensitize RCC to immunotherapy.

CTLA4 = experiment: Western blot of CTLA4 protein expression in RCC cells; format: cell-based, human; conditions: ACHN and Caki-2 RCC cells; 72 h, 100 μg/mL antibody; data not shown
Procedure: as §1, §2

ACHN cells = experiment: In vitro PBMC-killing assay (Caspase-3/7 Glo), renal cancer cells; format: cell-based; conditions: antibody pretreatment, then 72 h co-culture with human PBMC; FIG. 24A
Procedure: ACHN cells were seeded into a 96-well plate at 5×10^4 cells per well and allowed to attach overnight at 37° C. CBT-15 mAB or isotype control mAB were added to the ACHN wells at concentrations of 100 μg/mL in quadruplicate and incubated at 37° C. for 72 h. After mAB treatment, the media was replaced and 1.25×10^5 primary human PBMC cells (ATCC) were co-incubated with the ACHN cells for 72 h. Finally, luminescent CaspaseGlo® 3/7 activity (Promega) assay was performed according to the manufacturer's protocol as a surrogate measure of apoptosis.
To further assess the functional relevance of these findings we seeded ACHN renal and AsPC-1 pancreatic cancer cells into 96 wells and subjected them to antibody-dependent cell-mediated cytotoxicity assay. Briefly, 10^4 cancer cells were seeded into each well after 48 hours pretreatment with either isotype control or CBT-15 monoclonal antibody. Human peripheral blood […] were then seeded into each well at 10^5 cells per well and co-cultured for 72 h. After 72 h Caspase-3/7 Glo assay was performed to assess apoptosis.

[3] = system: ACHN human renal tumor xenograft; experiment: ACHN xenograft tumor study; format: in vivo, mice
Procedure: ACHN cells (5×10^5) were injected subcutaneously into the flanks of male athymic nude mice and allowed to grow until the tumor reached an average volume of 100 mm^3. Once this volume was reached, CBT-15 mAB or isotype control mAB were delivered intraperitoneally at 25 mg/kg biweekly and tumor volume measurements were taken every other day. Horizontal and vertical tumor diameter was measured on each injection date with calipers and tumor volume was calculated using the formula: tumor volume=0.5×length×width^2. At the end of the injection period mice were killed by CO2 asphyxiation and tumors were excised, weighed, and measured. All animal experiments were performed in accordance with standards set forth by the University of Oklahoma Health Sciences Center's Institutional Animal Care and Use Committee.
0.5×10^6 cells were injected into the flanks of 8 week-old athymic nude mice and the resulting tumors were allowed to grow to an average volume 100 mm^3. Upon reaching this volume we began delivering CBT-15 or isotype control mAB at 25 mg/kg biweekly. Tumor volume measurements were taken approximately every other day. At the end of 4 weeks from the start of injections animals were culled and tumors were excised, measured, and weighed.

affinity for DCLK1 by Western blot (detection of purified DCLK1 protein) [1]: confirmed; also recorded: detect
B1: CBT-15A: Anti-DCLK1 mouse monoclonal antibody, Immunoglobulin A species, raised against immunogen no. 8 (SEQ ID NO:10); VH SEQ ID NO:14, VL SEQ ID NO:16 (antibody, V domains shown)
VH: DVKLVESGGGLVKLGGSLKLSCAASGFTFSSYYMSWVRQTPEKRLELVAAINSNGGSTYYPDTVKGRFTISRDNAKNTLYLQMSSLKSEDTALYYCARHGGNYWYFDVWGAGTTVTVSS
VL: DIVMSQSPSSLAVSVGEKVTMS[about 80 residues cut from this listing]FGGGTKLEIK
modifications: HC variable AA sequence of CBT-15A; LC variable AA sequence of CBT-15A
detection/sorting of extracellular DCLK1+ subpopulation (FACS) [2]: could sort the live extracellular DCLK1+ population
protein level expression of PD-L1 (PD-L1): significantly decreased; also recorded: partially downregulate
protein level expression of CTLA4 (CTLA4): no effect
PBMC mediated apoptosis, Caspase-3/7 activity relative to isotype control (ACHN cells): significantly increased; also recorded: can sensitize; also recorded: sensitizes
excised tumor volume vs isotype mAB ([3]; 25 mg/kg biweekly, end of treatment, FIG. 26, p<0.001): significant decrease
excised tumor weight vs isotype mAB ([3]; 25 mg/kg biweekly, end of treatment, FIG. 27, p<0.01, p<0.001): significant decrease
xenograft tumor growth (tumor volume over time) vs isotype mAB ([3]; athymic nude mice, 25 mg/kg biweekly i.p., 4 weeks, FIG. 25, p<0.03, 25 mg/kg): strongly inhibited; also recorded: substantially reduced

“Also recorded” adds a separate entry of the source.
